This assay addresses T1, soluble monomeric human MUC16 (hMUC16.mmh, last five SEA domains) (Homo sapiens, UniProt Q8WXI7).
T1 construct: C-terminal tags (.mmh)
Kind of assay: Surface plasmon resonance (Biacore) binding to hMUC16 fragment at 25° C. On the set-up: key: NB: No binding. Particulars: Table 5A, hybridoma antibodies (H1M, H2M, H3M). In general terms: SPR reads the build-up and loss of mass on a sensor chip optically.

The values that follow come from patent US12570764B2, “Anti-MUC16 antibodies, antibody-drug conjugates, and bispecific antigen-binding molecules that bind MUC16 and CD3, and uses thereof” (Regeneron Pharmaceuticals, Inc., priority 2016, dated 2026).

T1 sequence (Q8WXI7 with tags, fused parts or gaps): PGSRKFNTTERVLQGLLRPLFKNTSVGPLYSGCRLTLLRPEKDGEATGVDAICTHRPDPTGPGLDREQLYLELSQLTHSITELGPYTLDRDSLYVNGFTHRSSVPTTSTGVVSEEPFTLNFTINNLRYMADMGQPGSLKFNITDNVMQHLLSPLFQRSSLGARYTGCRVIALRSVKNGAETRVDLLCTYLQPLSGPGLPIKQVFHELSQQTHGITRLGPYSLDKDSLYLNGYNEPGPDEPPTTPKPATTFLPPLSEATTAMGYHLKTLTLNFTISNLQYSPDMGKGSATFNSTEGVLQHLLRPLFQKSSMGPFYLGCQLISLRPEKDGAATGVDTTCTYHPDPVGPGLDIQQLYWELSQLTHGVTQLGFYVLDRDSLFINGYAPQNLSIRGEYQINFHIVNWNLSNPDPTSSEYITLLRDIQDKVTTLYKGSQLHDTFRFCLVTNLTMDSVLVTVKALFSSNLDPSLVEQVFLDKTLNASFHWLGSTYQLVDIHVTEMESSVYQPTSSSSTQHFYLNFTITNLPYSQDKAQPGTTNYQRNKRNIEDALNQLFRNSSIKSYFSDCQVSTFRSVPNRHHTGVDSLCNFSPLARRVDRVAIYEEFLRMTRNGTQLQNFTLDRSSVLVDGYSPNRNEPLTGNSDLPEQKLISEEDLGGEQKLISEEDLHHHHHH

B1: H3M9525N: hybridoma anti-MUC16 antibody, mIgG3; HCVR/LCVR SEQ ID NOs: 362/370 (antibody, V domains shown)
VH: QVQLQQWGAGLLKPSETLSLTCAVYGGSFSGYYWSWIRQPPGKGLEWIGEINHSGKTTYSPSLKSRVTISVDTSKSQFSLKLSSVTAADTAVYYCARQGLNYAIFDYWGQGTLVTVSS
VL: YIVMTQSPDSLAVSLGERATINCKSSRSILYTSNNKNYLAWYQQRPGQPPKLLIYWASTRESGVPDRFSGSGSGTDFTLTISSLQAEDVAVYYCQQYFSSPPTFGQGTKVEIK
modifications: mIgG3
Regarding B1, the KD entry is “no binding and NB”; the ka result is recorded as “NB”; the kd entry is recorded as “NB”. Under “dissociative half-life”, the “t ½” value was “NB”.
